The campaign covered roughly 360,000 compounds. About 7,500 (2.1%) were called active. Inconclusive means that the source gave no clear call. Such entries were picked first, then a sample of the others. Calls follow the shape of the dose curve; as a rule, active = well fitted cell-killing curve with a large enough effect; inconclusive = small, poorly fitted or top-dose-only effect, or effect the other way, or another doubt; inactive = no such curve, though single readings can be large or run the other way. No potency is given beside an inconclusive call; the fits are too rough.
assay: qHTS for induction of synthetic lethality in tumor cells producing 2HG: qHTS for the HT-1080-IDH1KD cell line; settings: HT-1080 IDH1 knockdown viability, ATP luminescence, 48 h; activity, negative = toxicity: at 46.1 µM (top of the series) unless noted;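 as to activity, negative = toxicity: 0% = DMSO wells and -100% = cell-free medium wells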
In short: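 Using the IDH1-knockdown HT-1080 line run in the same batch and compound series as the NT line, viability after 48 h at 37 °C was determined by CellTiter-Glo luminescence and expressed as % activity.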
Potency is read from the fitted curve at half-maximal effect; tags tell the direction and shape of the fitted curve.

SMILES	Potency	activity, negative = toxicity
COc1ccc(/C(C)=N\NC(=O)c2ccc(-c3ccccc3)cc2)c(F)c1	inconclusive [cytotoxic, single point]	–
CC1=C(CC/C(C)=N/NC(N)=S)C(C)(C)CCC1	active: 8.91 µM	–
CSCC(=O)NC1CCCc2c1cnn2-c1ccc(C)c(C)c1 (stereo not given)	–	inactive: -6.38%
COc1ccc(C(=O)N/N=C(\C)c2ccccn2)cc1OC	active: 10.3 µM	–
CC(C)c1cc(C(C)C)c(S(=O)(=O)N2CCNCC2)c(C(C)C)c1	inconclusive [cytotoxic, single point]	–
CCS(=O)(=O)N1CCN(c2cnn(-c3ccccc3)c(=O)c2Cl)CC1	inconclusive [rising, partial curve]	–
N#CC(C(=O)C1CCCCC1)c1nc2ccccc2[nH]1 (stereo not given)	inconclusive [cytotoxic, single point]	–
CC(C)CC(NC(=O)OCc1ccccc1)C(=O)NC(Cc1ccccc1)C(=O)CCl (stereo not given)	inconclusive [cytotoxic, single point]	–
Cn1c(SCC(=O)NC2CC2)nnc1-c1ccco1	–	inactive: 8.22%
O=C1CN(C(=O)c2ccc(Br)o2)C(c2ccc(F)cc2)c2cc(Cl)ccc2N1 (stereo not given)	inconclusive [cytotoxic, single point]	–
COc1cc(OC)cc(-c2sc3ccc(OC)cc3c2C#CC2(N)CCCCC2)c1	inconclusive [cytotoxic, single point]	–
CCCc1nnc(NC(=O)COc2ccc3c(c2)OCO3)s1	inconclusive [cytotoxic, full curve]	–
COc1cc(N/N=C(\C)c2ccc(O)c(C)c2)nc(-c2ccccc2)n1	inconclusive [cytotoxic, single point]	–
CCOC(=O)c1c(-c2ccc(-c3ccccc3)cc2)csc1NC(=O)CCN1CCOCC1	inconclusive [cytotoxic, single point]	–
Cc1cc2c(cc1C)NC(=O)CC(C(F)(F)C(F)(F)C(F)(F)F)=N2	inconclusive [cytotoxic, single point]	–
O=[N+]([O-])c1ccc(NCc2ccc3c(c2)OCO3)cc1	–	inactive: -0.647%
COc1ccc(S(=O)(=O)NNC(=O)Nc2ccc(F)cc2F)c(OC)c1	–	inactive: 12.4%
CCCc1[nH]nc2c1C(c1ccc(OC)c(Cn3nnc4ccccc43)c1)C(C#N)=C(N)O2 (stereo not given)	–	inactive: 3.77%
C#CCOc1nc(Nc2cccc([N+](=O)[O-])c2)nc(OCC#C)n1	inconclusive [cytotoxic, partial curve]	–
CCc1ccc2[nH]c3nc(N/N=C/c4cccc(O)c4)nnc3c2c1	active: 9.2 µM	–
COc1ccc(Nc2nc(N)nc(CN3CCc4ccccc4C3)n2)cc1	inconclusive [cytotoxic, single point]	–
COc1cc(-n2c(=O)c3ccccc3n(Cc3cccc(F)c3)c2=O)cc(OC)c1OC	–	inactive: -2.05%
CCOC(=O)C1=C(C)NC(=S)N(C(C)=O)C1c1ccc(OC)c(OC)c1 (stereo not given)	inconclusive [cytotoxic, single point]	–
CCn1c(CNc2nc3ccccc3n2C(C)C)nc2ccccc21	–	inactive: -3.68%

SMILES	Potency	activity, negative = toxicity
O=C(COc1ccc(Cl)cc1)N/N=C/c1cccc2cccnc12	inconclusive [cytotoxic, single point]	–
COc1cc(NC(=O)c2ccc(-c3c(C)noc3C)c3ccoc23)cc(OC)c1OC	inconclusive [cytotoxic, single point]	–
O=C(NCCc1ccc(F)cc1)c1ccncc1	–	inactive: -5.68%
O=C(NNC(=O)c1cccc2ccccc12)c1ccccc1O	–	inconclusive: -31.1% [cytotoxic]
Nc1c(C(=O)Nc2ccc(F)cc2)sc(=S)n1-c1ccccc1F	inconclusive [cytotoxic, single point]	–
Cc1cc(C)c(NC(=O)c2ccccc2CCc2ccccc2)c(C)c1	inconclusive [cytotoxic, single point]	–
COc1cc(OC)cc(-c2sc3ccc(OC)cc3c2-c2ccc(O)cc2)c1	inconclusive [cytotoxic, single point]	–
Cc1cc(Br)ccc1OCC(=O)NC1CCCC1	–	inactive: -0.161%
O=C(CC(=O)c1cccnc1)c1ccccc1	inconclusive [cytotoxic, single point]	–
CC(O)(c1ccc(F)c(F)c1)c1nc(-c2cccc(C(F)(F)F)c2)cs1 (stereo not given)	inconclusive [cytotoxic, single point]	–
COc1ccc(-c2sc3ccccc3c2/C=C/c2ccc(OC)c(OC)c2)cc1	–	inactive: -3.18%
COCCSc1ncnc2c1oc1nc3c(cc12)COC(C)(C)C3	inconclusive [cytotoxic, partial curve]	–
CCCc1nc(SCC(=O)NNC(=O)C2CCCCC2)c2ccccc2n1	–	inactive: -6.75%
CC1(C)S[C@@H]2C(C(=O)OCc3ccccc3)NC(=O)N2C1C(=O)OCc1ccccc1 (stereo not given in full)	–	inactive: 10.2%
Cc1c(/C=N/NC(=O)c2ccc(O)cc2)c2ccccn2c1C(=O)c1ccc(F)cc1	inconclusive [cytotoxic, partial curve]	–
CCN(CC)c1cc(C)c2cc(NC(=O)c3ccc(Br)o3)ccc2n1	–	inactive: -21.9%
Cc1ccc(NC(=S)NNC(=S)Nc2cccc(C(F)(F)F)c2)cc1	inconclusive [cytotoxic, single point]	–
COc1ccc(-c2csc(N(CCCN(C)C)C(=O)c3ccccc3C)n2)cc1	inconclusive [cytotoxic, single point]	–
CC(C)(C)c1ccccc1OCCCCCNCCO	inconclusive [cytotoxic, single point]	–
Cc1cccc(CN2C3=NCCCN3c3ccccc32)c1	inconclusive [cytotoxic, partial curve]	–
Cc1ccc(C)c(Cn2nnc3c(=O)[nH]c(C4CCCN(C(=O)C5CCC5)C4)nc32)c1 (stereo not given)	inconclusive [cytotoxic, single point]	–
COc1cc([N+](=O)[O-])c(C)cc1NC(=O)c1ccc(OC)c(OC)c1	–	inactive: 16.7%
C=CCC[C@@H](Cc1ccc(F)cc1)C(=O)O[C@H](CNC(=O)[C@H](CC=C)CC(=O)N(CCO)Cc1ccccc1)c1ccccc1	inconclusive [cytotoxic, single point]	–
CCC(C)c1ccc(C(C)NC(=S)NCc2ccc(F)cc2)cc1 (stereo not given)	inconclusive [cytotoxic, single point]	–

SMILES	Potency	activity, negative = toxicity
c1ccc(Nc2nc(Nc3ccccc3)nc(N3CCNCC3)n2)cc1	inconclusive [cytotoxic, single point]	–
CC(=O)N1c2ccc(Cl)cc2C2C=CCC2C1c1cccc2ccccc12 (stereo not given)	inconclusive [cytotoxic, single point]	–
COc1cc(CNCCc2ccc(F)cc2)ccc1OCc1ccc(Cl)nc1	inconclusive [cytotoxic, partial curve]	–
Cc1cc(OCC(=O)NC(C)c2ccccc2)ccc1[N+](=O)[O-] (stereo not given)	–	inconclusive: -29.1% [cytotoxic]
COc1nc(NC(=O)c2ccc(F)cc2)nc(OC)c1-c1ccccc1	inconclusive [cytotoxic, partial curve]	–
Oc1ccc(Br)cc1/C=N/Nc1ccccn1	active: 6.51 µM	–
CC(C)=CCc1c2c(c3occ(-c4ccc(O)c(O)c4)c(=O)c3c1O)C=CC(C)(C)O2	inconclusive [cytotoxic, single point]	–
O=C(/C=C\c1cn(-c2ccccc2)nc1-c1ccccc1)Nc1nccs1	active: 20.6 µM	–
COc1cccc(N(C(=O)CS(=O)CC(=O)Nc2ccc(F)cc2)C(C(=O)NC2CCCCC2)c2cccs2)c1 (stereo not given)	inconclusive [cytotoxic, single point]	–
COc1ccc(-c2csc(C(O)(c3ccccc3)C(F)(F)F)n2)cc1 (stereo not given)	inconclusive [cytotoxic, single point]	–
CC1CCN(Cc2c(C(=O)N/N=C/c3cccc(C(F)(F)F)c3)nnn2-c2nonc2N)CC1	inconclusive [cytotoxic, single point]	–
O=C(CCc1ccc(Oc2cc([N+](=O)[O-])cc([N+](=O)[O-])c2)cc1)Nc1cccc(Cl)c1	–	inactive: -21.6%
CC1(C)O[C@@H]2C[C@H]3[C@@H]4C[C@H](F)C5=CC(=O)C=C[C@]5(C)[C@@]4(F)[C@@H](O)C[C@]3(C)[C@]2(C(=O)CO)O1	inconclusive [rising, full curve, poor fit]	–
CC1=CC(C)(C)N2C(=O)C3(N=C(N)NC(Nc4ccccc4)=N3)c3cc(C)cc1c32 (stereo not given)	inconclusive [cytotoxic, single point]	–
CC[C@H]1O[C@H](C)CC2=C1C(=O)OC(C)(C)O2	–	inactive: 4.05%
CCOCCCNC(=O)C(NC(=O)c1ccc2c(c1)OCO2)c1ccc(Cl)cc1 (stereo not given)	–	inactive: 3.46%
CNS(=O)(=O)c1cc(-c2nnc(N3CCOCC3)c3ccccc23)ccc1C	–	inactive: -0.579%
O=C(NCc1ccco1)c1cc(S(=O)(=O)N2CCCc3ccccc32)ccc1Cl	–	inactive: 0.153%
N#CC1=C(N)Oc2ccc3ccccc3c2C1c1cccnc1 (stereo not given)	inconclusive [cytotoxic, full curve]	–
CCOC(=O)c1c(CSc2ccc(C)cc2)oc2ccc(O)cc12	inconclusive [cytotoxic, single point]	–
COCCNC(=O)Cn1c(=O)oc2cc(S(=O)(=O)N3CC(C)CC(C)C3)ccc21 (stereo not given)	–	inactive: 11.8%
OCCNCc1cc(Br)ccc1OCc1ccccc1Cl	inconclusive [cytotoxic, partial curve]	–

From PubChem BioAssay AID686971 (National Center for Advancing Translational Sciences (NCATS), 2013)
